# This is one part of the list. Each Rep nickase domain was tested in vitro on the same pool of single strands (1 h at 37 °C, 3 µM enzyme); the outer parts of the 90-letter strands are left off. Uncut reads are compared with the no-enzyme pool on a log2 scale; the lower, the more was cut; hits are not called. Counts are relative to all reads; uncut strands gain when others are lost, and binding without cutting may add a little.
# Assays:
# Experiment in all cases: uncleaved DNA left, log2 of reads against the no-enzyme library (log2 ratio); higher = less cleavage (more negative = more Rep cleavage of the k-mer); sequences stand for … in CTCGTCCG…ACCGGAGA
# [1] = system: T1, Rep nickase domain of Muscovy duck circovirus
# T1 sequence (protein, residues 1-111, tag omitted): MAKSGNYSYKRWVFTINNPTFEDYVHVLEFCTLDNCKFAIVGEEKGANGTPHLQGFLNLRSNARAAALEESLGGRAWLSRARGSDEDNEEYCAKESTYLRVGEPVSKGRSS
# Procedure: (§1)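 A pool of 90-nt single-stranded DNAs with seven random bases just before the constant AC of the nick site (name = the seven bases) was cut by 3 µM recombinant His6-SUMO-tagged Rep nickase domain (300 nM DNA, 50 mM HEPES pH 8.0, 50 mM NaCl, 1 mM MnCl2, 1 h, 37 °C, three replicates). Uncut DNA was amplified and sequenced.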
# [2] = system: T2, Rep nickase domain of banana bunchy top virus
# T2 sequence (protein, residues 1-94, tag omitted): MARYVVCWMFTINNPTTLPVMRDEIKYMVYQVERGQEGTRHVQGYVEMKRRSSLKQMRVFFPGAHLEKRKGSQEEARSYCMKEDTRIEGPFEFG
# Procedure: as §1
# [3] = system: T3, Rep nickase domain of cabbage leaf curl virus
# T3 sequence (protein, residues 1-116, tag omitted): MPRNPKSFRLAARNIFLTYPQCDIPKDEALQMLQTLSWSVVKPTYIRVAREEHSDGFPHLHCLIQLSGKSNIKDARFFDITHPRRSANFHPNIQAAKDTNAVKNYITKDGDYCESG
# Procedure: as §1
# [4] = system: T4, Rep nickase domain of chickpea chlorotic dwarf virus
# T4 sequence (protein, residues 1-124, tag omitted): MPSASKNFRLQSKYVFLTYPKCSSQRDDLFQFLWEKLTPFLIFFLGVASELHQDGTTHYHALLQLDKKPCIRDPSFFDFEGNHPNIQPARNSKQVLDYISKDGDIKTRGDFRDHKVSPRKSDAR
# Procedure: as §1
# [5] = system: T5, Rep nickase domain of faba bean necrotic yellows virus
# T5 sequence (protein, residues 1-98, tag omitted): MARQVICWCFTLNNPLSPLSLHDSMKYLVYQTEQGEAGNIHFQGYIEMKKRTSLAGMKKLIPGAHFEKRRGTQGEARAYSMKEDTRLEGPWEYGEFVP
# Procedure: as §1
# [6] = system: T6, Rep nickase domain of maize striate mosaic virus
# T6 sequence (protein, residues 1-117, tag omitted): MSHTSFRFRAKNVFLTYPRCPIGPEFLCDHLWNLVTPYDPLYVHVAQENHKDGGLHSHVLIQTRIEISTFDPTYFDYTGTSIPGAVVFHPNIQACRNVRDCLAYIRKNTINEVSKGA
# Procedure: as §1
# [7] = system: T7, Rep nickase domain of porcine circovirus 2
# T7 sequence (protein, residues 2-116, tag omitted): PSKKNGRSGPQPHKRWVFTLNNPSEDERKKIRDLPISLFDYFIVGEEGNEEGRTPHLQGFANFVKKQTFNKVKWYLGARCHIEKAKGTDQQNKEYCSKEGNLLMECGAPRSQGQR
# Procedure: as §1
# [8] = system: T8, Rep nickase domain of tomato golden mosaic virus
# T8 sequence (protein, residues 1-124, tag omitted): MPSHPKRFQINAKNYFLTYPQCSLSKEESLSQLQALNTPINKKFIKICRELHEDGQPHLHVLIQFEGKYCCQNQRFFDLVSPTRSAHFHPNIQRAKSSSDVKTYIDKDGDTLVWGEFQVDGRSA
# Procedure: as §1
# [9] = system: T9, Rep nickase domain of tomato yellow leaf curl virus
# T9 sequence (protein, residues 1-136, tag omitted): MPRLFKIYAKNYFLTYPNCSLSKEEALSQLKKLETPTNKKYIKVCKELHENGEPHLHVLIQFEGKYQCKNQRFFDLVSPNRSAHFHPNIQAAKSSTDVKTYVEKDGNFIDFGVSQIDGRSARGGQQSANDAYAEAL
# Procedure: as §1
# [10] = system: T10, Rep nickase domain of wheat dwarf virus
# T10 sequence (protein, residues 1-137, tag omitted): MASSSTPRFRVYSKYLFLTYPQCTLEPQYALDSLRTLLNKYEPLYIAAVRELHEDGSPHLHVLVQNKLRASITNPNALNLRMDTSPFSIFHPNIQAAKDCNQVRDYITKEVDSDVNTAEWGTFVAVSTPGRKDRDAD
# Procedure: as §1
Sequence,uncleaved DNA left (log2) [1],uncleaved DNA left (log2) [2],uncleaved DNA left (log2) [3],uncleaved DNA left (log2) [4],uncleaved DNA left (log2) [5],uncleaved DNA left (log2) [6],uncleaved DNA left (log2) [7],uncleaved DNA left (log2) [8],uncleaved DNA left (log2) [9],uncleaved DNA left (log2) [10]
CAATGCT,-2.36,-0.333,-4.18,-3.04,-0.0132,-3.26,-3.94,-3.61,-0.268,-3.48
GACAAAC,0.0662,0.0577,0.274,0.731,0.00584,0.424,0.252,0.00752,0.0442,0.131
TCGCTAC,-0.0781,-0.15,-0.167,-1.36,-0.13,-0.639,-0.0608,-0.135,-0.0199,-0.211
ACAGGTA,-0.0698,-0.106,-0.117,-0.383,-0.104,-0.173,0.0846,0.136,0.0306,-0.0248
GTTCTTA,-0.0227,0.0759,0.246,0.759,0.0663,1.79,0.025,-0.0225,0.0597,0.0568
TAATATA,-2.22,-0.0746,-3.24,-3.05,-0.0485,-2.26,-2.13,-2.65,-0.0855,-3.09
CGTAATT,-0.0935,-0.1,0.0218,-1.77,0.00729,-0.327,-1.65,-0.094,0.111,-0.0429
TTCATTC,0.00158,0.0155,-0.0841,-0.29,-0.0655,-0.991,0.0153,-0.0962,-0.0269,-0.0999

# Source: the supplement of paper PMC7826260
